These results are taken from the RNAGym collection of RNA variant scans (doi:10.1093/nar/gkz1192).

Read counts are not given, so values of variants with three or more changes are uncertain.

The labels stand for the following.
B1: CPEB3 Ribozyme (parent)
chain: UAACAGGGGGCCACAGCAGAAGCGUUCACGUCGCAGCCCCUGUCAGAUUCUGGUGAAUCUGCGAAUUCUGCUGUAUAUCUC

The data set covers variants of B1. Put plainly: self-cleavage, relative activity (ratio to wild type); higher = more cleavage; in vitro, sequencing. In a few lines: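 CPEB3 self-cleaving ribozyme mutant libraries were made by rounds of error-prone PCR, barcoded, and transcribed in vitro with T7 RNA polymerase for 5 hours at 37°C. Cleavage occurred during transcription and a 15 min DNase I step before EDTA stop. RNAs were reverse transcribed with template switching and Illumina-sequenced, with DNA sequencing mapping barcodes to variants. Relative activity is the variant's cleaved/total read fraction divided by wild type's (minimum 5 reads), averaged across three batches.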
UAACAGGGGGCCACAGCAGUAGCGUACGCGUCGCAGCCCGUGUCAGAUUCUGGUGAAUCUGCGAAUUCUGCUGUAUAUCUC [A20U U26A A28G C40G]: the self-cleavage was determined as 0.21. As to UAACAGGGGGCCACAGCAGUAGCGUCCACGUCGCAGCCCCUGACAGAUUCUGGUGAAUCUGCGGAUUCUGCUGUAUAUCUC [A20U U26C U43A A64G], the self-cleavage was 0.41. As to UAACAGGGGGCCACAGCAGUAGCGUUCACGCCGCAGCCCCUGUCAGAUUCUGGUGAAUCUGCGAAUUCUGCUGUAUGUCUC [A20U U31C A77G], the self-cleavage was 0.19.

Regarding UAACAGGGGGCCACAGCAGUAGCGUACACGUCGCUGCCCCUGUCUGGUUCAGGUGAAUCUGCGAAUUCUGCUGUAUAUCUC [A20U U26A A35U A45U A47G U51A], the self-cleavage is 0.06. With UAACAGGGGGCCACAGCAGUAGCGUUCACGUCGCAGCCCCAGUCAGAUUCUGGUGAGUCUGCGAAUUCUCCUGUAUAUCUC [A20U U41A A57G G70C], the self-cleavage turned out to be 0.1. Under UAACAGGGGGCCACAGCAGUAGCGUCCACGUCGCAGCCCCAGUCAGAUUCUGGUGAAUCUGCGAAUUCUGCUGUACAUCUC [A20U U26C U41A U76C] stands 0.16; under UAACAGGGGGCCACAGCAGUAGCGUUCACGUCGCAGCCCCCGUCAGAUUCUGGUGAGUCUGCGAACUCUGCUGUAUAUCUC [A20U U41C A57G U66C], 0.18; under UAACAGGGGGCCACAGCAGAGGCGUUCGCGUUGCAUCCCCUGUCAGAUUCUGGUGAAUCUGCGAAUUCUGCUGUAUAUCUC [A21G A28G C32U G36U], 0.13.

As to UAACAGGGGGCCACAGCAGAGGCGUUCGCGACGCAGCCCCUGUCAGAUUCUGGUGAAUCUGCGAAUUCUGCUGUAUAUCUC [A21G A28G U31A], the self-cleavage worked out at 0.31. Under UAACAGGGGGCCACAGCAGAGGCGUUCGCGUCGCAGCCCCUAUCAGAUUCUGGUGAAUCUGCGAAAUCUGCUGUAUAUCUC [A21G A28G G42A U66A] stands 0.24. Consider UAACAGGGGGCCACAGCAGUAGCGUACACGUCGCGGCCCCUGUCAGAUUCUGGUGAAUCUGUGAAUUCUGCUGUAUAUCUC [A20U U26A A35G C62U], for which the self-cleavage was found to be 0.13.

In the case of UAACAGGGGGCCACAGCAGUAGCGUUCACGUCGCAGCCCCUGCCAGAUUCUGGUGAGUCUGCGAAUUCUGCUGUAUAUCUC [A20U U43C A57G], the self-cleavage amounted to 0.19. The result for UAACAGGGGGCCACAGCAGUAGCGUUCACGUCGCAGCCCCUGUCAGAUUCUGGUGAAUCUGCGAAUUCUGCCGUAUAACCC [A20U U72C U78A U80C] reads 0.26; that for UAACAGGGGGCCACAGCAGUAGCGCUCACGUCGCAGCCCCCGUCAGAUUCUCGUGAAUCUGCGAAUUCUGCUGUAUAUCUC [A20U U25C U41C G52C], 0.13; that for UAACAGGGGGCCACAGCAGACGCGUUCACGUCGCAGCCCCUGUCAGAUUCUGGUGAAUUUGCGAGUUCUGCUGUAUAUCUC [A21C C59U A65G], 0.08.

Take UAACAGGGGGCCACAGCAGUAGCGUUCACGUCGCAGCCCCUGUCAGAUCCUGUUGAAUCUGCGAAUUCUGCUGUAUAUCUC [A20U U49C G53U]: the self-cleavage is 0.1.

Regarding UAACAGGGGGCCACAGCAGAGGCGUUCGCGUCGCUGCCCCUGCCAGAUUCUGGUGAAUCUGCGAAUUCCGCUGUAUAUCUC [A21G A28G A35U U43C U69C], the self-cleavage came out at 0.31. For UAACAGGGGGCCACAGCAGUAGCGUUCACGUCGCAGCCCCUGUCAGAUUCGGGUGAAUCUGCGAAUCCUGCUGUAUACCUC [A20U U51G U67C U78C], the self-cleavage stood at 0.12. On to UAACAGGGGGCCACAGCAGUAGCGUUCACGUCGCAGCCCCUGUCAGAUACUGGUGAAUCUGCGAAUUCUGCUGUAUAUCAC [A20U U49A U80A], for which the self-cleavage came out at 0.23. Turning to UAACAGGGGGCCACAGCAGUAGCGUUCACGUCGCAGCCCCUGUCAGAUCCCGGUGAAUCUGCGGAUUCUGCUGUAUAUCUC [A20U U49C U51C A64G], the self-cleavage is 0.06.

Consider UAACAGGGGGCCACAGCAGUAGCGUCCACGUCGCAGCCCCUGUCAGAUUCUGGUGAAUCUGCGAAUUCUGCUGUAUAUCCC [A20U U26C U80C], for which the self-cleavage turned out to be 0.16.

Take UAACAGGGGGCCACAGCAGACGCGACCACGUCGCAGCCCUUGUCAGGUUCUGGUGUAUCUGCGAAUCCUGCUGUAUAUCUC [A21C U25A U26C C40U A47G A56U U67C]: the self-cleavage worked out at 0.06.

Take UAACAGGGGGCCACAGCAGUAGCGUACACGUCGCAGCCCCUGUCAGAUUCUGGUGAAUCUGCGAAUUCUGCUGUAUACCUC [A20U U26A U78C]: the self-cleavage was determined as 0.15.

Turning to UAACAGGGGGCCACAGCAGAGGCGUUCGCGUCGCACCCCCUGUCAGAUUCCGGUGAAUCAGCGAAUUCUGCUGUAUAUCUC [A21G A28G G36C U51C U60A], the self-cleavage stood at 0.13.

As for UAACAGGGGGCCACAGCAGUAGCGUUCACGUCGCAGCCCCUGCCAGAUUCUGGCGAAUCUGCGAAUUCUGCUGUAUAUCUC [A20U U43C U54C], the self-cleavage turned out to be 0.16. The result for UAACAGGGGGCCACAGCAGUAGCGUUCACGUCGCAGCCCCUGUCAGAUACUGGUGAAUCUGCGAAUUCCGCUGUAUAUCUC [A20U U49A U69C] reads 0.05; that for UAACAGGGGGCCACAGCAGUAGCGUUCACGUCGCAGCCCCUGUCAGAUUCUGGUGAAUCUGCGAACUCUGCUGUAUAUCCC [A20U U66C U80C], 0.23; that for UAACAGGGGGCCACAGCAGUAGCGUUCACGUCGCAGCCCCUGUCAGAUUCUGGUGAAUCUGCGAAUUCUGCAGUAUAUCCC [A20U U72A U80C], 0.37. As to UAACAGGGGGCCACAGCAGACGCGUUCACGUCGCAGCCCCUGUCAGGUACUGGUGGAUCUGCGAAUUCUGCUGUAUAUCUC [A21C A47G U49A A56G], the self-cleavage was determined as 0.08. The result for UAACAGGGGGCCACAGCAGUAGCGUUCACGCCGCAGCCCCAGUCAGAUUCUGGUGAAUCUGCGAAUUCUGCAGUAUAUCUC [A20U U31C U41A U72A] reads 0.06; that for UAACAGGGGGCCACAGCAGACGCGUUCACGUCGCAGCCCCCGUCAGAUUCAGGAGAAUCUGCGAAUCCUGCUGUAUAUCUC [A21C U41C U51A U54A U67C], 0.1. Under UAACAGGGGGCCACAGCAGUAGCGUUCACGUCGCAGCCCCCGUCAGAUCCUGGUGGAUCUGCGGAUUCUGCCGUAUACCUC [A20U U41C U49C A56G A64G U72C U78C] stands 0; under UAACAGGGGGCCACAGCAGACGCGUUCACGUCGCAGCCCCUGUCAGAUUCCGGUGAAUCUGCAAAUUCUGCUGUAUAACUC [A21C U51C G63A U78A], 0.06; under UAACAGGGGGCCACAGCAGUAGCGCUCACGUCGCAGCCCCUGUCAGAUUCUGGUGAAUCCGCGAAUUCUCCUGUAUAUCUC [A20U U25C U60C G70C], 0.06.
